In PMC12820563, “FoxP3 forms a head-to-head dimer in vivo and stabilizes its multimerization on adjacent microsatellites” one finds binding signal data, which are given here for 32 sequences.

This is one part of the list.

The target in this assay is T1, MBP-FoxP1dN (Mus musculus, UniProt P58462 326-579).
T1 sequence: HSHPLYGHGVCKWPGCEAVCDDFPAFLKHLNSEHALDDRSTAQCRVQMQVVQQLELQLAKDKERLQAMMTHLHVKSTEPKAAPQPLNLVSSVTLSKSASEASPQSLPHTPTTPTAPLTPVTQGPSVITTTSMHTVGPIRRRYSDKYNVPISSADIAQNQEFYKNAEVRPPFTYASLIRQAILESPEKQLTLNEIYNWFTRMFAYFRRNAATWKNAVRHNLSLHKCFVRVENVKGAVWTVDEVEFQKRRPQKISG
Put plainly: PD-seq (MBP pull-down with sequencing); 20 mM Tris-HCl pH 7.5, 100 mM NaCl, 1.5 mM MgCl2, 0.4 uM protein, 0.1 uM dsDNA library, 30 min, room temperature, amylose pull-down; high values mean tight binding. To be noted: protein: recombinant; tags: His6-MBP; chain copies: 2; dsDNA, one strand shown. Summed up:
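His6-MBP-tagged mouse FoxP3 or FoxP1 fragment lacking the N-terminus, expressed in E. coli, was mixed at 0.4 µM with 0.1 µM Klenow-filled double-stranded degenerate DNA library. Incubation was 30 min at room temperature in Tris pH 7.5 buffer with NaCl and MgCl2. Complexes were caught on amylose resin and washed three times; DNA was released with proteinase K, PCR-barcoded and Illumina-sequenced. Binding is reads-per-million enrichment, pull-down over input, with replicates pooled.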
In the case of “GATGATTGTTCTCCCAGCTGATGAATTGGATGGCTCGAGTAAACAAATTTTCCTAATCTTTCTGTTCAAGCGCCATCTAC”, the binding signal is 0.804 RPM ratio (pull-down/input).

Take “GATGATTGTTCTCCCAGCTGATGAATTACGCAGGTCGAGTAAACAAATTTTCCTAATCTTTCTGTTCAAGCGCCATCTAC”: the binding signal was 0.977 RPM ratio (pull-down/input).

For the sequence “GATGATTGTTCTCCCAGCTGATGAATTCTCCAGCTCGAGTAAACAAATTTTCCTAATCTTTCTGTTCAAGCGCCATCTAC”, the binding signal was 0.825 RPM ratio (pull-down/input).

As to “GATGATTGTTCTCCCAGCTGATGAATTGGAAGATTCGAGTAAACAAATTTTCCTAATCTTTCTGTTCAAGCGCCATCTAC”, the binding signal is 0.835 RPM ratio (pull-down/input).

Consider “GATGATTGTTCTCCCAGCTGATGAATTTTATACCTCGAGTAAACAAATTTTCCTAATCTTTCTGTTCAAGCGCCATCTAC”, for which the binding signal is 0.928 RPM ratio (pull-down/input).

Regarding “GATGATTGTTCTCCCAGCTGATGAATTGACCGCTTCGAGTAAACAAATTTTCCTAATCTTTCTGTTCAAGCGCCATCTAC”, the binding signal is 0.971 RPM ratio (pull-down/input).

Consider “GATGATTGTTCTCCCAGCTGATGAATTGTCCGCGTCGAGTAAACAAATTTTCCTAATCTTTCTGTTCAAGCGCCATCTAC”, for which the binding signal is 1 RPM ratio (pull-down/input).

As to “GATGATTGTTCTCCCAGCTGATGAATTTACATATTCGAGTAAACAAATTTTCCTAATCTTTCTGTTCAAGCGCCATCTAC”, the binding signal is 1.5 RPM ratio (pull-down/input).

On to “GATGATTGTTCTCCCAGCTGATGAATTCATTTAGTCGAGTAAACAAATTTTCCTAATCTTTCTGTTCAAGCGCCATCTAC”, for which the binding signal was 0.95 RPM ratio (pull-down/input).

For “GATGATTGTTCTCCCAGCTGATGAATTGGTCCTATCGAGTAAACAAATTTTCCTAATCTTTCTGTTCAAGCGCCATCTAC”, the binding signal was 0.903 RPM ratio (pull-down/input).

Regarding “GATGATTGTTCTCCCAGCTGATGAATTCAGCTCTTCGAGTAAACAAATTTTCCTAATCTTTCTGTTCAAGCGCCATCTAC”, the binding signal is 0.807 RPM ratio (pull-down/input).

For “GATGATTGTTCTCCCAGCTGATGAATTCCTCAAATCGAGTAAACAAATTTTCCTAATCTTTCTGTTCAAGCGCCATCTAC”, the binding signal was 0.865 RPM ratio (pull-down/input).

Turning to “GATGATTGTTCTCCCAGCTGATGAATTAGCCAGTTCGAGTAAACAAATTTTCCTAATCTTTCTGTTCAAGCGCCATCTAC”, the binding signal was 0.85 RPM ratio (pull-down/input).

“GATGATTGTTCTCCCAGCTGATGAATTCCGATGCTCGAGTAAACAAATTTTCCTAATCTTTCTGTTCAAGCGCCATCTAC”: the binding signal was 0.96 RPM ratio (pull-down/input).

As to “GATGATTGTTCTCCCAGCTGATGAATTCAGGTCTTCGAGTAAACAAATTTTCCTAATCTTTCTGTTCAAGCGCCATCTAC”, the binding signal is 0.829 RPM ratio (pull-down/input).

For “GATGATTGTTCTCCCAGCTGATGAATTTTTAGGGTCGAGTAAACAAATTTTCCTAATCTTTCTGTTCAAGCGCCATCTAC”, the binding signal is 0.898 RPM ratio (pull-down/input).

Regarding “GATGATTGTTCTCCCAGCTGATGAATTGACATCTTCGAGTAAACAAATTTTCCTAATCTTTCTGTTCAAGCGCCATCTAC”, the binding signal is 1.37 RPM ratio (pull-down/input).

Take “GATGATTGTTCTCCCAGCTGATGAATTGTAAGCATCGAGTAAACAAATTTTCCTAATCTTTCTGTTCAAGCGCCATCTAC”: the binding signal is 1.66 RPM ratio (pull-down/input).

Turning to “GATGATTGTTCTCCCAGCTGATGAATTGGTACAGTCGAGTAAACAAATTTTCCTAATCTTTCTGTTCAAGCGCCATCTAC”, the binding signal was 0.973 RPM ratio (pull-down/input).

On to “GATGATTGTTCTCCCAGCTGATGAATTGTACAGCTCGAGTAAACAAATTTTCCTAATCTTTCTGTTCAAGCGCCATCTAC”, for which the binding signal was 0.888 RPM ratio (pull-down/input).

As for “GATGATTGTTCTCCCAGCTGATGAATTTGGGGCTTCGAGTAAACAAATTTTCCTAATCTTTCTGTTCAAGCGCCATCTAC”, the binding signal was 0.839 RPM ratio (pull-down/input).

As for “GATGATTGTTCTCCCAGCTGATGAATTCCGAATGTCGAGTAAACAAATTTTCCTAATCTTTCTGTTCAAGCGCCATCTAC”, the binding signal is 0.861 RPM ratio (pull-down/input).

Turning to “GATGATTGTTCTCCCAGCTGATGAATTAATTGCTTCGAGTAAACAAATTTTCCTAATCTTTCTGTTCAAGCGCCATCTAC”, the binding signal was 1.16 RPM ratio (pull-down/input).

On to “GATGATTGTTCTCCCAGCTGATGAATTATTTAGCTCGAGTAAACAAATTTTCCTAATCTTTCTGTTCAAGCGCCATCTAC”, for which the binding signal is 1.24 RPM ratio (pull-down/input).

As to “GATGATTGTTCTCCCAGCTGATGAATTCAGATGCTCGAGTAAACAAATTTTCCTAATCTTTCTGTTCAAGCGCCATCTAC”, the binding signal is 1.1 RPM ratio (pull-down/input).

For the sequence “GATGATTGTTCTCCCAGCTGATGAATTGGAATACTCGAGTAAACAAATTTTCCTAATCTTTCTGTTCAAGCGCCATCTAC”, the binding signal is 0.876 RPM ratio (pull-down/input).

For the sequence “GATGATTGTTCTCCCAGCTGATGAATTCGGGATATCGAGTAAACAAATTTTCCTAATCTTTCTGTTCAAGCGCCATCTAC”, the binding signal is 0.878 RPM ratio (pull-down/input).

With “GATGATTGTTCTCCCAGCTGATGAATTTATATTCTCGAGTAAACAAATTTTCCTAATCTTTCTGTTCAAGCGCCATCTAC”, the binding signal is 1.04 RPM ratio (pull-down/input).

“GATGATTGTTCTCCCAGCTGATGAATTGGCTGGATCGAGTAAACAAATTTTCCTAATCTTTCTGTTCAAGCGCCATCTAC”: the binding signal is 0.811 RPM ratio (pull-down/input).

Regarding “GATGATTGTTCTCCCAGCTGATGAATTAGGTGGGTCGAGTAAACAAATTTTCCTAATCTTTCTGTTCAAGCGCCATCTAC”, the binding signal is 0.78 RPM ratio (pull-down/input).

Regarding “GATGATTGTTCTCCCAGCTGATGAATTTCTGACCTCGAGTAAACAAATTTTCCTAATCTTTCTGTTCAAGCGCCATCTAC”, the binding signal is 0.807 RPM ratio (pull-down/input).

As for “GATGATTGTTCTCCCAGCTGATGAATTCTGGTAATCGAGTAAACAAATTTTCCTAATCTTTCTGTTCAAGCGCCATCTAC”, the binding signal is 1.16 RPM ratio (pull-down/input).
